The values below come from the supplement of paper PMC10338343.

± gives the standard deviation. This is a selection; strong and weak results do not stand in their true shares. A value given as a limit tells only on which side of the number the result lay.
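Also: 1 nM active piRISC with 0.1 nM target library at 33 °C single turnover.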

In this experiment the test system is MIWI (PIWIL1) piRISC loaded with L1MC piRNA (30 nt). Briefly: pre-steady-state target cleavage rate (min^-1); MIWI and MILI are mouse PIWI proteins and EfPiwi is from a freshwater sponge; tags in brackets are library labels; higher = faster piRNA-guided slicing of the target. As to conditions: guide: L1MC piRNA 5'p-UAACUAAAUACUAUGCAAGCUGUAGGUCCU; auxiliary factor: 500 nM mouse GTSF1. The essentials:
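Active affinity-purified piRISC carrying one synthetic guide (1 nM) was mixed with a transcribed, DNA-blocked target RNA library […] in HEPES–potassium acetate buffer at 33 °C for 0–8 or 0–960 min, with or without 500 nM GTSF1 partner protein. Uncleaved targets were then sequenced and normalised to depth and to weakly complementary targets. Three trials were pooled, and k3 was capped at 0.0001 min^-1. A burst-and-steady-state fit was applied to obtain the pre-steady-state cleavage rate.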
With UCCUGCUACAGCUACCAUAGUAUUUAGUUA, the “pre-steady-state target cleavage rate” value was 0.337 ± 0.032.

In the case of UCCACCUACAGCUUGCAAAGUAUUUUCAAA, the “pre-steady-state target cleavage rate” value was 0.214 ± 0.035.

As to UCCUGGAACAGCUUGCAUUGUAUUUUCAAA, the “pre-steady-state target cleavage rate” value turned out to be 0.155 ± 0.03.

On to AGGACCUACAGCUUGCAUAGCUAUUUAGUUA, for which the “pre-steady-state target cleavage rate” value came to 0.136 ± 0.05.

Take AGGACCUACAGCUUGCAUAGUAAAAAGAAA: the “pre-steady-state target cleavage rate” value came to 0.359 ± 0.088.

Consider AGCACCUACAGCUUGCAUAGUAUUUUCAAA, for which the “pre-steady-state target cleavage rate” value is 0.586 ± 0.084.

For UCCUGGAUGUCGAACGUAAGUAUUUAAUUA, the “pre-steady-state target cleavage rate” value was less than 0.0001.

On to AGGACCUACAGCUUGCAUUCUAUUUAGAAA, for which the “pre-steady-state target cleavage rate” value stood at 0.15 ± 0.043.

As to AGCUCCUACAGCUUGCAUAGUAUUUUCAAA, the “pre-steady-state target cleavage rate” value came out at 0.323 ± 0.046.

Turning to UCCUGGAUGAGCUUGCAUACUAUUUACAAA, the “pre-steady-state target cleavage rate” value came out at 0.00497 ± 0.0042.

For the sequence UCCUGGAUCAGCUUGCAUAGUAUUAUCUAA, the “pre-steady-state target cleavage rate” value came to 0.188 ± 0.034.

Consider UCCUGGAUGUCCUUGCUUAGUUUUUAGUUA, for which the “pre-steady-state target cleavage rate” value worked out at 0.00542 ± 0.0039.

For the sequence UCCACCUACAGCUUCCAUAGAAUUUAGUUA, the “pre-steady-state target cleavage rate” value is 0.0393 ± 0.015.

For the sequence “UCCUGGAACAGCUUGCAUAGUAUAAUCAAA [g8:g23:cont:t1A]”, the “pre-steady-state target cleavage rate” value is 0.11 ± 0.024.

Consider UCCUCCUACAGCUUGCAUAGUAAAAACAAA, for which the “pre-steady-state target cleavage rate” value was found to be 0.16 ± 0.038.
